Patent US20100184190A1, “Influencing viral lipid constituents” (priority 2006, published 2010)

System: A/Sydney virus envelope lipids
Test: FTIR analysis of treated virion membranes

Substance | change of membrane lipid order / melting groups (FTIR)
sphingomyelinase | significant increases in ordered high melting membrane lipid groups
cyclodextrin | significant increases in ordered high melting membrane lipid groups
